Source: a compilation of properties of binary mixtures (doi:10.1039/b303735e)
The densities may have been worked out from excess volumes.

Assay: xn = mol fraction of the nth substance listed
Conditions: 298.15 K, 101.3 kPa

CCCC[n+]1ccn(C)c1.F[B-](F)(F)F + CN(C)C=O
Conditions | mass density [kg/m3]
x2 = 0 | 1211
x2 = 0.2041 | 1187.7
x2 = 0.3024 | 1174.6
x2 = 0.4061 | 1158.1
x2 = 0.4408 | 1151.9
x2 = 0.5052 | 1139.6
x2 = 0.5459 | 1130.7
x2 = 0.6014 | 1117.6
x2 = 0.665 | 1100.7
x2 = 0.701 | 1090
x2 = 0.8008 | 1055
x2 = 0.9005 | 1009.2
x2 = 0.947 | 982.4

CC#N + CCCC[n+]1ccn(C)c1.F[B-](F)(F)F
Conditions | mass density [kg/m3]
x1 = 1 | 776.7

ClCCl + CCCC[n+]1ccn(C)c1.F[B-](F)(F)F
Conditions | mass density [kg/m3]
x1 = 0.199 | 1221.3
x1 = 0.2854 | 1226.6
x1 = 0.3985 | 1235.5
x1 = 0.5452 | 1251
x1 = 0.5958 | 1258.2
x1 = 0.6471 | 1265.2
x1 = 0.8019 | 1288.3
x1 = 0.9015 | 1303.9
x1 = 0.9477 | 1309.1
x1 = 1 | 1318.2

CCCC[n+]1ccn(C)c1.F[B-](F)(F)F + CC#N
Conditions | mass density [kg/m3]
x2 = 0 | 1211
x2 = 0.0982 | 1198.3
x2 = 0.2265 | 1178.9
x2 = 0.3047 | 1164.3
x2 = 0.4554 | 1132.5
x2 = 0.5059 | 1119.3
x2 = 0.5469 | 1107.3
x2 = 0.6005 | 1090.1
x2 = 0.6441 | 1074.4
x2 = 0.6973 | 1052.2
x2 = 0.9513 | 851.6

CCC(C)=O + CCCC[n+]1ccn(C)c1.F[B-](F)(F)F
Conditions | mass density [kg/m3]
x1 = 0.2004 | 1168.5
x1 = 0.3969 | 1118.2
x1 = 0.4495 | 1102.8
x1 = 0.5 | 1086.8
x1 = 0.5521 | 1068.8
x1 = 0.6062 | 1048.1
x1 = 0.6545 | 1027.8
x1 = 0.8137 | 945.1
x1 = 0.8974 | 888.6
x1 = 0.9502 | 846.5
x1 = 1 | 799.9

CCCC[n+]1ccn(C)c1.F[B-](F)(F)F + CCC(C)=O
Conditions | mass density [kg/m3]
x2 = 0 | 1211
